Test results taken from publication PMC12136788.
Some of the results follow.

B1: chr13:69700593:69701701:-|three_prime_utr|ENSG00000150361|control|control|control (ssRNA)
RNA: GGGAGUUCUACAGUCCGACGAUCUUGAAUGGCAAGAAUGAGAACUUCCAGAGAUGAAAACUCUUCAAGAACAAGGAUCUCUGUAGCGUUACCUACUGAUGUUGAAAGAGUUAGUAGAUCAAACAGAAUAGUAGGAAACAAGAACAACAGAGGAUUGAGCAUCA
B2: chr10:15076986:15077088:-|3pUTR|ENSG00000176244|unk|total|mutant (ssRNA)
RNA: GGGAGUUCUACAGUCCGACGAUCUUUUCCUUUAAGAAGAUACCCAGCCGUGGGAUUGCUGGGCCGAAUGGCCGUUCUAUUUUCCGUUCCAUGAGAAAUUUCCGUGCUGUUUUUCACCGAGGUUGUACUAAUUUACAUUCCCACCAACAGAGGAUUGAGCAUCA
B3: chr1:203741488:203741589:+|3pUTR|ENSG00000058668|msi1|total|mutant (ssRNA)
RNA: GGGAGUUCUACAGUCCGACGAUCGCCAGUUCAUGUCCCUGACUCUCACCUCCCAUCCGAUAAAUGAAGCCCACCCCCCUUUCCCGAGUGAUGAGAGUCAAGAAGAGGGGAUGUAUGAACGGCCAAAUUCCCAUGUGAGAGGAACAACAGAGGAUUGAGCAUCA
B4: chr22:20819776:20819877:-|CDS|ENSG00000241973|unk|total|mutant (ssRNA)
RNA: GGGAGUUCUACAGUCCGACGAUCUGUAACGUUUUCACUUGAUCUUCCCGAAUACCUUUGCAAGUAUGCUAUCCCAUGCCUGACCGGAAUCUCGCGAGCAUUUGGGCGUUACAGCAACAUGGAAGAGUCUCUCCUCUCAAAGCUCAACAGAGGAUUGAGCAUCA
B5: ENSG00000163399:stop:overlap|stop_codon|ENSG00000163399|stop_codon|NA|stop_codon (ssRNA)
RNA: GGGAGUUCUACAGUCCGACGAUCUCAGAAAACUCAUCAUCAGGCGACGCCCUGGCGGCUGGGUGGAGAAGGAAACCUACUAUUAGCCCCCCGUCCUGCACGCCGUGGAGCAUCAGGCCACACACUCUGCAUCCGACACCCACCCAACAGAGGAUUGAGCAUCA
B6: chrX:47571900:47572933:-|three_prime_utr|ENSG00000008056|control|control|control (ssRNA)
RNA: GGGAGUUCUACAGUCCGACGAUCAAACCUGACUCCUCCUGGCCCUAAAUCCGGUUCUCACAUGUGGAAUCCCCAAGUCCUUUUAGAACCCCACUCGUGGUCACUUCAGGAUCUACUUCUGUUUUAGAACCUCCACAUUCCUGACAACAGAGGAUUGAGCAUCA
B7: chr5:178210945:178211047:+|3pUTR|ENSG00000197451|unk|FALSE|unique (ssRNA)
RNA: GGGAGUUCUACAGUCCGACGAUCCUGCUGCCGCUCUGCAGCCUGGACCUGUGGACCCUGGUUGUAAAGAGUAAAUUGUAUCUUAGGAAACCAGUGUCACCUUUUUUUCACCUUUUAAUUUUAUAUUAUUUGCGUCAUACAUUUCAACAGAGGAUUGAGCAUCA
B8: chr5:113567122:113567223:+|CDS|ENSG00000047188|unk|total|mutant (ssRNA)
RNA: GGGAGUUCUACAGUCCGACGAUCAAACUCUGAGAAUUGGGCUGUCGUUAAAGCUGCAUUGGUGGCAGGCAUGUAUCCUAAUUCCGUCCACGUGGACAGAGAGAAUCCCGUGUUGACAGGGCCAAAGGAGAAAAAAGUACGAUUCAACAGAGGAUUGAGCAUCA
B9: chr15:58597255:58597356:-|3pUTR|ENSG00000137845|unk|FALSE|unique (ssRNA)
RNA: GGGAGUUCUACAGUCCGACGAUCUGGAAAAGGAACCCAAUUUUCUUAUGAACAGAUAUUUUUAACUUAAUGGCACAAAGUCUUAGAAUAUUAUUAUGUGCCCCGUGUUCCCUGUUCUUCGUUGCUGCAUUUUCUUCACUUGCACAACAGAGGAUUGAGCAUCA
B10: chr1:202941098:202941199:-|3pUTR|ENSG00000159346|msi1_unk|FALSE|overlapping (ssRNA)
RNA: GGGAGUUCUACAGUCCGACGAUCCCUCCCUUACCCCCAUCCUUAACUUUGUAUCCUGGCUUAUAACAGGCCAUCCAUUUUUGUAGCACACUUUUCAAAAACAAUUAUAUACCCUGGUCCCAUCUUUCUAGGGCCUGGAUCUGCCAACAGAGGAUUGAGCAUCA
B11: chr7:138585310:138585366:+|3pUTR|ENSG00000122779|msi1_unk|FALSE|overlapping (ssRNA)
RNA: GGGAGUUCUACAGUCCGACGAUCCUCUUUAAGUUGAAAAGUAAAAAAUAUAUGUGGUUUGGAUGUGUGCUUUAAUUCAGCUUUAGAAAUUAAUACCACUACCCGUGAAUUAUAUGGCCUGACAAUAUGAAUUAGGUGUACUGUCAACAGAGGAUUGAGCAUCA
B12: chr11:70485313:70487720:-|CDS|ENSG00000162105|control|control|control (ssRNA)
RNA: GGGAGUUCUACAGUCCGACGAUCUGGGGCGACGUCACAGAGAUCAAAAGCCCGAUUCUCUCAGGCCCAAAGGCAAACGUUAUUAGUGAAUUGAACUCUAUCCUACAGCAAAUGAACCGAGAGAAAUUGGCAAAGCCGGGGGAACAACAGAGGAUUGAGCAUCA
B13: chr9:101390727:101390839:-|CDS|ENSG00000136897|unk|total|mutant (ssRNA)
RNA: GGGAGUUCUACAGUCCGACGAUCCAGAAAAGAGAAAGAGCCAGUGGUUGUUGAGACAGCCGAAGAGAAAAAGGAACCUAUCCCCGUGUGUCCACCUUUACGAAGCCGAGCAUACACACCACCUGAAGAUCUCCAGAGUCGUUUCAACAGAGGAUUGAGCAUCA
B14: chr2:96301550:96301651:-|CDS|ENSG00000144028|msi1|FALSE|unique (ssRNA)
RNA: GGGAGUUCUACAGUCCGACGAUCAAGGCGAAAGGAGAUUGACCUGCUGCUGGGUCAAACAGAUGAUACCAGAUACCAUGUGCUAGUGAACCUGGGCAAAAAGAUCACAGACUAUGGUGGAGAUAAGGAAAUCCAAAAUAUGGGCAACAGAGGAUUGAGCAUCA
B15: chr21:43695798:43695899:+|3pUTR|ENSG00000160208|msi1|total|mutant (ssRNA)
RNA: GGGAGUUCUACAGUCCGACGAUCACAAUAUUUUGUAAAAUGAUGCUUCCCCCUUCUCCAUGGUCCCGUCAAUUUUGUACAAUCCGGUAUCUGACUUUACAAGUUUGUUAUCCUUUCUAAUUUUUACUGAACUGAAAGCACAAACAACAGAGGAUUGAGCAUCA
B16: chr2:216672738:216672882:-|3pUTR|ENSG00000115461|msi1|FALSE|unique (ssRNA)
RNA: GGGAGUUCUACAGUCCGACGAUCUUCUCUUAGGCUUUUGUUUCUAUUUCAAACAUACUUUCUUGGUUUUCUAAUGGAGUAUAUAGUUUAGUCAUUUCACAGACUCUGGCCUCCUCUCCUGAAAUCCUUUUGGAUGGGGAAAGGCAACAGAGGAUUGAGCAUCA
B17: chr15:90882754:90882855:+|3pUTR|ENSG00000140564|msi1_unk|total|mutant (ssRNA)
RNA: GGGAGUUCUACAGUCCGACGAUCCACUUUGUGAUUAUUUCACUUCCGAUGCUGAUGAUUUGUUUUUGUAUUUUUAAUGGGGGCCGCAGCUGGACUACCCACGUUCUCACACCCACCGUCCGCCCUGCUCCUCCCUGGCUGCCCCAACAGAGGAUUGAGCAUCA
B18: chr5:179730620:179730726:+|3pUTR|ENSG00000127022|msi1_unk|total|mutant (ssRNA)
RNA: GGGAGUUCUACAGUCCGACGAUCGAGCUUUAAAUCAUCCGAGCUUAAAUUGUCAGAUCGUUCAUUGCCUUUCCAGGGUUAUUCCGUAAAGUUUGUUGAAAACAAAAACGCCUUUUCUUGGUUCUUUUUUCAGUUAUUUUGAAGCAACAGAGGAUUGAGCAUCA
B19: chr13:52475664:52475769:+|3pUTR|ENSG00000136108|msi1|FALSE|bound_elsewhere (ssRNA)
RNA: GGGAGUUCUACAGUCCGACGAUCGCGUCCCUUGGACUGCCUGUUGAUUGAUGGAAAGUGUCUGCACUGACACUUUUCGUCAGUAGUCUGUAGUUUCGUGGCCUCUUUUGAUUAUAACUGGGGUCACCAAGAAGGUUUACUUAACAACAGAGGAUUGAGCAUCA
B20: chrX:155122998:155123099:+|3pUTR|ENSG00000185515|unk|total|mutant (ssRNA)
RNA: GGGAGUUCUACAGUCCGACGAUCCUACAUACACACAAAUGAAUGCAUGUAAAAUCUGGUGAUACUGAAUAAAGUCUGUGGUCCCGACCGCAGUAUAAUAUUAUUGUCAAUGUCUUGGAUGUGAAGUUGUGCUACCGUUACAAACAACAGAGGAUUGAGCAUCA
B21: chr1:150144965:150145066:+|3pUTR|ENSG00000136631|msi1|total|mutant (ssRNA)
RNA: GGGAGUUCUACAGUCCGACGAUCAGACUCCCAGAGUUGUCCUAACAAUAAGUCUGAGCCCAUCUCAACCCACUUUUCUCCGGCCGUCUUUAUGUAUCUGUCCGCACAAUCACUUCAGUUACUGAUGAAUUUUGUUGGGAUCUGCAACAGAGGAUUGAGCAUCA
B22: chr21:44851366:44851434:-|CDS_3pUTR|ENSG00000183255|msi1_unk|total|mutant (ssRNA)
RNA: GGGAGUUCUACAGUCCGACGAUCAGGACAGUCCUCUCGUCUUGCAGACUGGUGACCUUCUAUUCCCUGUUCAUCUCUGUUUCCCGAUUCCGUCACUUGAAAUAAGAAAUCUUUGGGGUUUGGGCUUUUUUAUACUCUUCUCAGCAACAGAGGAUUGAGCAUCA

These binders were tested against T1, UNK ZnF1-6 (called full-length) (human, UniProt Q9C0B0 30-357) (assay: nsRBNS (natural sequence RNA bind-n-seq); RBNS binding buffer (assumed for nsRBNS): 25 mM Tris pH 7.5, 150 mM KCl, 3 mM MgCl2, 0.01% Triton X-100, 500 ug/ml BSA, 20 U/ml SUPERase-In, 4 C; UNK is unkempt and MSI1 is Musashi-1; names of the RNAs are library labels; protein concentration not given here; high values mean tight binding).
T1 sequence: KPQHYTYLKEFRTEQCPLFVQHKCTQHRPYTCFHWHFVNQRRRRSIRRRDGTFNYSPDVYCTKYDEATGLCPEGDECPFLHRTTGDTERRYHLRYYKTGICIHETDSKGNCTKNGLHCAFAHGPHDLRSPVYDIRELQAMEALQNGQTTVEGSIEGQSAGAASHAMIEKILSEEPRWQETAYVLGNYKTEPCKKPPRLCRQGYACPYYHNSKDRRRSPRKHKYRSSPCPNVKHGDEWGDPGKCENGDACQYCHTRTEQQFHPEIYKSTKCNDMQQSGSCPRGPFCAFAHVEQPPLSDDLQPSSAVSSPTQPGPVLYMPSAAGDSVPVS

| Binder | binding signal [enrichment R] |
| --- | --- |
| B1 | 0.541 |
| B2 | 0.434 |
| B3 | 0.866 |
| B4 | 0.413 |
| B5 | 0.811 |
| B6 | 0.975 |
| B7 | 0.916 |
| B8 | 0.606 |
| B9 | 3 |
| B10 | 8.46 |
| B11 | 1.61 |
| B12 | 0.77 |
| B13 | 0.544 |
| B14 | 0.578 |
| B15 | 0.579 |
| B16 | 5.21 |
| B17 | 1.04 |
| B18 | 0.332 |
| B19 | 0.443 |
| B20 | 0.211 |
| B21 | 0.734 |
| B22 | 0.43 |
